Data from PubChem BioAssay AID1745845 (National Center for Advancing Translational Sciences (NCATS), 2022).
In all, about 360,000 compounds went through this assay and about 2,600 (0.72%) were called active. The inconclusive results got no clear call from the source; some entries with a clear call stand among them for comparison. The call rests on the fitted dose curve; in most records, active means well fitted inhibition curve with a large enough effect; inconclusive means small, poorly fitted or top-dose-only effect; inactive means no such curve, though single readings can be large or run the other way. Where the call is inconclusive, the potency comes from a doubtful curve fit.

Assay: Primary qHTS for Inhibitors of ATXN expression; further: nearly all actives have a fitted effect of over 55% in size
Conditions: HEK-293 ATXN2-luciferase reporter, luminescence, 24 h; series mostly up to 57 µM
How it was run: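 qHTS (up to 57 uM final) was run with 24 h compound exposure of reporter cells at 37 °C. Each well was multiplexed: SteadyGlo luminescence measured ATXN2-luciferase expression after a fluorogenic Gly-Phe-AFC viability readout (25 uM final).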
Potency means the concentration at half of the fitted maximal effect; tags describe the fitted curve by direction and shape.

Potency, inconclusive:
Cc1ccc(NS(=O)(=O)c2ccc(OCC(=O)NCc3ccncc3)cc2)cc1 25.1 µM [inhibitor, single point], CCCCC[C@H](C)N1C[C@@H](COCc2ccccc2)Oc2cc(N3CC[C@H](N(C)C)C3)ccc2S1(=O)=O 39.8 µM [inhibitor, single point], CNC(=S)N1CCN(c2nc(-c3ccc(Cl)cc3)cs2)CC1 0.891 µM [inhibitor, full curve, poor fit], CCCCC[C@H](C)N1C[C@H](COCc2ccccc2)Oc2cc(N3CC[C@@H](N(C)C)C3)ccc2S1(=O)=O 35.5 µM [inhibitor, single point], CCOC(=O)[C@H]1[C@H]2COc3ccc(Br)cc3[C@@H]2N2C(=O)c3cc(F)c(F)cc3NC(=O)[C@@]12C 22.4 µM [inhibitor, partial curve, poor fit], Cc1cccc(C(=O)N2CCC(=O)N([C@H](COCc3cccc(C(F)(F)F)c3)Cc3ccccc3)CC2)c1 35.5 µM [inhibitor, single point], O=S(=O)(Nc1cccc2cccnc12)c1ccc(S(=O)(=O)N2CCCC2)cc1 31.6 µM [inhibitor, single point], CCOP(=O)(OCC)C(O)c1cc(OC)c(OC)c(OC)c1 (stereo unspecified) 1.26 µM [inhibitor, partial curve, poor fit], Cc1cc(C)cc(-n2c(C)nc3cc(C(=O)NCc4ccccc4Cl)ccc32)c1 31.6 µM [inhibitor, single point], NC(=O)CCCn1c(C(=O)c2cc(Cl)c(N)c(Cl)c2)c2ccc([N+](=O)[O-])cc2[n+]1[O-] 17.8 µM [inhibitor, partial curve]

Potency, active:
O=C(Cn1c2ccccc2c(=O)c2ccccc21)N/N=C/c1ccc(N2CCCC2)c([N+](=O)[O-])c1 31.6 µM, O=C(Nc1ccc(Cl)cc1)/C(=C/c1cccc(O)c1)c1nc2ccccc2s1 8.91 µM, CC1=C(CO)C(=O)O[C@@H]([C@@H](C)[C@H]2CC[C@H]3[C@@H]4C[C@H]5O[C@]56[C@@H](O)C=CC(=O)[C@]6(C)[C@@H]4CC[C@]23C)C1 3.06 µM

Potency, inactive:
COc1nc(OC)nc(N2CCC(C(=O)NC3CC3)CC2)n1, CC1CN(C(=S)NC(=O)c2ccco2)CC(C)O1 (stereo unspecified), CSc1ccc(NC(=O)N2CCC(C(=O)c3ccc(F)cc3)CC2)cc1
